Results reported in patent US20120183570A1 (WASHINGTON STATE UNIVERSITY, published 2012).

Molecular target: T1, Human plasma fibronectin (Fn) (human, UniProt P02751-9 32-2240, limits assumed)
T1 construct: It is treated as the same molecule; also called full-length Fn
Test: ELISA on Fn-coated wells, anti-GST detection

B1: GST alone (other)
chain: not shown
notes: Negative control in the Fn ELISA
binding result: no binding
